The source of these data is PubChem BioAssay AID1240 (Sanford-Burnham Center for Chemical Genomics, 2008).

Hit rate of the full screen: of about 50,000 compounds, about 800 (1.6%) showed an effect of 50% or more. The list shows a part of the results.

The target of the assay is Bcl-2-like protein 10 (Homo sapiens) (UniProt Q9HD36). Put plainly: TR3 peptide-Bcl-B binding displacers, biochemical primary FP assay, phenotype converters (AID 1240).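 Also: 0% = Bcl-B with tracer peptide and DMSO and 100% = tracer peptide lacking Bcl-B.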 The following applies: GST-Bcl-B / FITC-TR3 peptide fluorescence polarization; stronger effect = higher value; compound at 3.75 mg/L. For orientation: In fluorescence polarisation assays a small probe gives low polarisation when free and higher when bound to something large.
Chain of UniProt Q9HD36 (Q9HD36 whole entry, looked up): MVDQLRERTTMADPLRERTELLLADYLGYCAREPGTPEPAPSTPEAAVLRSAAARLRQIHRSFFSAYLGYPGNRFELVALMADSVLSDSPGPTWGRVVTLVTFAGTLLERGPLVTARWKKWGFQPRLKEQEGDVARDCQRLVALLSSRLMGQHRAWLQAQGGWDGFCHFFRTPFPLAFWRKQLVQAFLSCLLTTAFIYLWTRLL
Consider `O=c1/c(=C/c2cccc(OCc3ccccc3F)c2)sc2nc3ccccc3n12`, for which the displacement was found to be 1.9%.

`O=C(Nc1cc(C(F)(F)F)cc(C(F)(F)F)c1)c1cccc(Br)c1`: the displacement is -6.3%. For `O=C(CN(c1cccc(Cl)c1)S(=O)(=O)c1ccccc1)N1CCc2ccccc2C1`, the displacement came out at 3.8%. On to `O=C(/C=C/c1ccccc1)NC(=S)Nc1cccc(C(F)(F)F)c1`, for which the displacement came to 9.2%.

On to `C(=N\n1cnnc1)/c1ccc(OCCOc2ccccc2)cc1`, for which the displacement came to 11.2%. Turning to `O=C1CSC(c2cn(-c3ccccc3)nc2-c2ccc(Cl)cc2)N1Cc1ccco1` (stereo not given), the displacement is -13.9%. In the case of `FC(F)(F)c1nnc2ccc(N3CCOCC3)nn12` it was 7.7%. Consider `COc1ccc(C2SCCN2S(=O)(=O)c2ccc(C)cc2)cc1` (stereo not given), for which the displacement is 13.4%. To `CCOC(=O)c1c(NC(=O)/C=C/c2ccc3c(c2)OCO3)sc(C(C)=O)c1C` belongs 7.7%; to `COC(=O)c1c(N)sc(C(=O)Nc2ccccc2OC)c1C`, 1.7%; to `COc1ccc(C2/C(=C(\O)c3ccc(C)cc3)C(=O)C(=O)N2CCCC(=O)O)cc1` (stereo not given), 2.7%.

With `CCN(CC)S(=O)(=O)c1ccc(NC(=O)COc2ccc(Cl)cc2)cc1`, the displacement was 2.7%. In the case of `Cc1cc(/C=N/O)c(C)c(COCc2cc(C)cc(/C=N/O)c2C)c1` it was -0.7%; in that of `O=C(O)C1CCCCC1C(=O)NCc1ccccc1` (stereo not given), 1.1%; in that of `Cc1ccc(C(=O)N/C(=C\c2ccc(-c3cc(Cl)ccc3Cl)o2)C(=O)NCc2ccco2)cc1`, -92.2%. Take `CC(C)OP(=O)(OC(C)C)C(Nc1cccc(N)c1)c1cccc(N)c1` (stereo not given): the displacement was -4.6%. Take `O=C(O)c1cccc(N2C(=O)c3cc4ccccc4c(-c4ccccc4)c3C2=O)c1`: the displacement turned out to be 2.7%. For `N#C/C(=C\c1ccc(-c2cccc(Cl)c2)o1)c1ccccc1`, the displacement is -6.4%. For the compound `COc1cc(C2Nc3ccccc3NC3=C2C(=O)CC(c2ccc4c(c2)OCO4)C3)cc(OC)c1O` (stereo not given), the displacement came out at 9.5%.

As to `Cc1ccc(/C=C/C(=O)Nc2ccc(Br)cc2)o1`, the displacement was found to be 11.8%. As for `COc1ccc(OC)c(NC(=O)C(=O)NCc2ccc(C)cc2)c1`, the displacement was -6.1%. Consider `CCOc1ccccc1/C=N\N1CCN(c2ccccc2OC)CC1`, for which the displacement turned out to be 1.1%. On to `O=C(NN1C(=O)c2ccccc2C1=O)c1ccc2c(c1)C(=O)N(c1ccc(Sc3ccc([N+](=O)[O-])cc3)cc1)C2=O`, for which the displacement is 15.7%. As for `O=C(/C=C/c1cccc(C(F)(F)F)c1)Nc1ccc(Br)cc1`, the displacement came out at 16.9%.

Regarding `CN1CCN(C(=O)c2cnn(-c3ccccc3)c2NC(=O)c2ccc(Br)cc2)CC1`, the displacement is -5.1%. As for `COc1ccc(C(NS(=O)(=O)c2ccc3ccccc3c2)c2ccccc2)cc1` (stereo not given), the displacement is -16.2%.

Turning to `O=C(c1ccccc1)N1CCN(C(=O)c2cnn3c2NC(c2ccc(Br)cc2)CC3C(F)(F)F)CC1` (stereo not given), the displacement was determined as 11%.

Take `Cc1ccc2nc(/C(C#N)=C\c3cc(Br)ccc3OC(C)C)[nH]c2c1`: the displacement was 13.1%. For the compound `CC(=O)N(CCC(c1ccccc1)C1CCOC(C)(C)C1)Cc1ccccc1` (stereo not given), the displacement is -14.6%.

On to `COc1cccc(NC(=O)c2cc(-c3ccc(OC)c(OC)c3)nc3ccccc23)c1`, for which the displacement is 9.6%. With `O=C1CSC(c2ccccc2)N1CCN1CCCCC1` (stereo not given), the displacement was -42.9%.

Turning to `Cc1cc(/C=N\NC(=O)c2cc3ccccc3cc2O)c(C)n1-c1ccccc1`, the displacement was 21.7%.

For `COc1cccc(/C=C2/C(=O)NC(=O)N(c3ccc(Br)cc3)C2=O)c1O`, the displacement came out at 10.7%. With `NC(=O)c1cc(NC(=O)c2cc3ccccc3cc2O)ccc1Cl`, the displacement turned out to be 8.4%. In the case of `Cc1ccc(S(=O)(=O)N2CCN(c3ccc([N+](=O)[O-])c(N4CCOCC4)c3)CC2)cc1`, the displacement worked out at 7.1%. With `O=C(O)CCCCCN1C(=O)C(=O)/C(=C(/O)c2ccccc2)C1c1ccccc1` (stereo not given), the displacement was found to be 2.1%.

With `O=[N+]([O-])c1ccccc1N[C@@H]1OC[C@@H](O)[C@H](O)[C@H]1O`, the displacement was -3.5%. As for `CC1=C(C(=O)OCC(C)C)C(c2ccc(Br)cc2)NC(=O)N1` (stereo not given), the displacement stood at 3.3%. As for `Cc1ccc(C(C)C)c(OCC(=O)Nc2cccc3nsnc23)c1`, the displacement is 23.7%.

As for `CC1=NN(c2ccc(S(N)(=O)=O)cc2)C(=O)/C1=C\c1ccc(C(C)C)cc1`, the displacement stood at 3.4%. Take `O=C(O)c1ccccc1N1C(=O)c2ccc(Oc3ccc([N+](=O)[O-])cc3)cc2C1=O`: the displacement was -8.6%.

As for `Cc1ccc(NC(=O)COc2ccccc2Cl)c(C(=O)O)c1`, the displacement came to 11.9%. To `COc1ccc(CCN2C(=O)CC(NCCc3ccc(S(N)(=O)=O)cc3)C2=O)cc1OC` (stereo not given) belongs -2.6%. Turning to `O=C(c1ccccc1Cl)N1CCN(c2ccc(Cl)cc2[N+](=O)[O-])CC1`, the displacement was found to be 15.5%.

Turning to `Cc1ccc(OCCCNC(C)(C)C)cc1C`, the displacement was 5.9%. As for `COc1ccc(C2CC(C(F)(F)F)n3nc(C(=O)Nc4cccnc4)cc3N2)cc1` (stereo not given), the displacement is 0.5%.

Consider `CCOc1ccc2c(c1)-c1c(ssc1=S)C(C)(C)N2C(=O)c1cccnc1`, for which the displacement is 10.9%. As to `Nn1cnnc1N/N=C/c1ccc(O)cc1O`, the displacement is -9%. Consider `O=C(NC(=S)Nc1ccc(Cl)cc1)c1ccccc1`, for which the displacement is 3.9%. To `CCOc1ccc(S(=O)(=O)N(CC(=O)N2CCc3ccccc3C2)c2ccc(C)cc2)cc1` belongs -4.6%; to `Cc1ccc(-c2cc(C(F)(F)F)n3nc(C(=O)OC(C)C)cc3n2)cc1`, 10.8%. For the compound `O=C(O)/C=C\C(=O)NN=C(c1ccccc1)c1ccccc1`, the displacement was determined as 14.3%. Turning to `COc1ccc(-c2nc(-c3ccc(O)cc3)[nH]c2-c2ccc(OC)cc2)cc1`, the displacement turned out to be 18.1%. Regarding `CCOC(=O)c1sc(NC(=O)/C=C/c2cccc([N+](=O)[O-])c2)c(C(=O)OCC)c1C`, the displacement was 7.2%. To `COc1ccc(C(=O)N2c3ccccc3C(N(C(=O)c3cccs3)c3ccccc3)CC2C)cc1` (stereo not given) belongs 16.7%; to `Cc1onc(-c2c(Cl)cccc2Cl)c1C(=O)NCc1ccncc1`, 15%. Consider `C=CCSC1=C(C#N)C(c2ccco2)C(C(=O)Nc2ccccc2OC)=C(C)N1` (stereo not given), for which the displacement was -21.8%. As to `Cc1ccc(N2C(=O)CC(NCc3cccc(C(F)(F)F)c3)C2=O)cc1` (stereo not given), the displacement was 0.1%.

As to `C(=C\c1ccccc1)/C1=Nc2ccccc2NC(c2ccccc2)C1` (stereo not given), the displacement is 0.8%. In the case of `Cc1ccc(NC(=O)c2ccccc2N(Cc2ccccc2)S(C)(=O)=O)cc1Cl` it was 3.3%; in that of `N#Cc1cccc(N=Cc2ccc(OCc3ccccc3)cc2)c1`, -7.8%. `CCOC(=O)COc1ccc2oc(C)c(C(=O)OC)c2c1`: the displacement was found to be 8.5%. To `CCOC(=O)c1ccc(N2C(=O)C3C(c4ccc(Cl)cc4)OC4(C(=O)c5ccccc5C4=O)C3C2=O)cc1` (stereo not given) belongs -9.8%; to `CN(C)Cc1c(O)ccc2cc(-c3nc4ccccc4s3)c(=O)oc12`, 110%; to `Nc1ccc(S(=O)(=O)Nc2nccc(/C=C/c3cccc(Cl)c3)n2)cc1`, -22.7%. For the compound `Cc1cc(N2CCN(c3ccccc3)CC2)nc(-c2ccc(Br)cc2)n1`, the displacement was found to be 9.6%.

`COc1cccc(/C=C2\SC(=S)N(CCC(=O)O)C2=O)c1`: the displacement came out at 12.7%. `Cc1ccc(Cl)cc1NC(=O)C1CCCC1`: the displacement amounted to 0.4%. To `O=[N+]([O-])c1ccc(S(=O)(=O)NC2c3ccccc3Oc3ccccc32)cc1` belongs -0.6%; to `CCOC(=O)c1ccc(NC(=O)CN(c2ccc(F)cc2)S(=O)(=O)c2ccccc2)cc1`, -7.4%; to `Cc1cccc(Nc2nnc(-c3ccc(C(=O)NCCO)cc3)c3ccccc23)c1`, 3.5%. As to `COC(=O)c1c(NC(=O)CN2C(=O)c3ccccc3C2=O)sc2c1C(C(=O)OC)CC2` (stereo not given), the displacement is -0.7%. For `Cn1c(CNc2ccc(O)cc2)nc2ccccc21`, the displacement amounted to 76.7%. Take `COc1ccccc1NC(=O)c1ccc(Br)o1`: the displacement is 1%. For `S=C1NC(c2ccccc2)=NCN1c1ccccc1`, the displacement was 1.8%. Consider `Cc1cc(Cl)ccc1NC(=O)c1ccc(CN(c2ccccc2)S(C)(=O)=O)cc1`, for which the displacement was -4.5%. As for `CCc1ccc(OCC(=O)Nc2ccc(OC(F)(F)F)cc2)cc1`, the displacement came to 1.4%. Take `COc1cccc(C(=O)Nc2nc3ccc(S(C)(=O)=O)cc3s2)c1`: the displacement was -11.5%. As for `Cc1nc2ccccn2c1C(=O)N/N=C\c1ccc(OCc2ccc(Cl)cc2)cc1`, the displacement was determined as 8.8%. As to `Cc1ccc(OCCOCCOc2ccc(/C=c3\sc4nc5ccccc5n4c3=O)cc2)cc1`, the displacement is -1%. For the compound `COc1ccc(NC(=O)CN(c2cc(OC)ccc2OC)S(C)(=O)=O)cc1`, the displacement is 13.1%. As to `COc1ccccc1NC(=O)c1ccc(C(=O)c2c(C)cc(C)cc2C)cc1`, the displacement was 5.1%. In the case of `COc1ccccc1NS(=O)(=O)c1ccc(Br)cc1` it was 0.6%; in that of `COc1cc(OC)cc(C(=O)Nc2cccc(-c3nc4ccccc4s3)c2)c1`, 23.1%; in that of `CNc1oc(-c2ccccc2)nc1S(=O)(=O)c1ccccc1`, -7.9%. Regarding `Cc1ccc(N2C(=O)C(Cl)=C(NCCc3ccccc3)C2=O)c(C)c1`, the displacement amounted to 3%. For `COc1ccc(C2CC(C(F)(F)F)n3nc(C(=O)N4CCN(Cc5ccccc5)CC4)cc3N2)cc1` (stereo not given), the displacement came out at 4.5%. In the case of `COC(=O)C1=CN(CCc2ccccc2)C=C(C(=O)OC)C1c1ccc(Cl)cc1`, the displacement was 8.8%. For `O=C(Nc1ccc2c(c1O)C(=O)c1ccccc1C2=O)c1ccccc1`, the displacement stood at 12.7%.

Regarding `C(=N\c1nc2ccccc2n1Cc1ccccc1)/c1cccs1`, the displacement was determined as 4.2%. In the case of `CC(C)CCn1c2ccccc2c2cc(CC(N)=O)ccc21`, the displacement is -5.8%. Take `O=C(/C=C/c1cccs1)Nc1ccc(N2CCOCC2)cc1`: the displacement was -1%. Turning to `COc1ccc(-c2nnc(SCC(=O)O)n2N)cc1`, the displacement was -1.4%. For `COc1c(O)ccc(/C=N/NC(=O)COc2cccc(C)c2)c1[N+](=O)[O-]`, the displacement is -1.1%.

In the case of `O=C1ON=C(c2ccccc2)/C1=C\c1ccc(OCc2ccccc2)cc1`, the displacement amounted to 7.7%. Regarding `Cc1ccc(Nc2nc(-c3cccs3)cs2)cc1`, the displacement was -4.9%. Consider `O=C(O)c1ccc(-c2cc([N+](=O)[O-])ccc2F)o1`, for which the displacement is -5.3%.

With `O=C(Cc1ccc(Cl)cc1)Nc1ccc(Nc2ccccc2)cc1`, the displacement is -3.8%. Regarding `Cn1c(=O)c(N)c2c3c(c(Br)ccc31)C(=O)c1ccccc1-2`, the displacement is 159%. On to `COc1cccc(NC(=O)CN(c2ccc(F)cc2)S(=O)(=O)c2ccccc2)c1`, for which the displacement worked out at 4.5%.

On to `CCN(CC)CCC(=O)N1c2ccccc2Sc2ccc(NC(=O)OC)cc21`, for which the displacement is 0.2%.

As to `CCCOC(=O)c1ccc(NC(=O)/C=C/c2ccc3c(c2)OCO3)cc1`, the displacement was -8.4%. For the compound `COc1ccc(OC)c(N(CC(=O)Nc2ccc(Cl)cc2)S(C)(=O)=O)c1`, the displacement was 10.2%.

As for `O=C1c2ccccc2CN1c1nccs1`, the displacement was -8.3%.

For `COCCCNC(=O)c1ccc(Cl)c([N+](=O)[O-])c1`, the displacement was 5.3%.
